Test results taken from the supplement of paper PMC8728848.
The list shows a part of the results.

Key:
Test in all cases: glycan array binding signal (z-score within array); higher = stronger binding
Details in all cases: glycan notation: IUPAC condensed, linker removed
[1] = target: Gal(a1-3)[Gal(a1-4)]Gal(b1-4)GlcNAc
How it was run: (§1)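 Columns mapping to the same glycan were averaged after glycan names were converted to IUPAC-condensed notation. The data come from 3228 arrays in the Consortium for Functional Glycomics database, limited to those with an available protein sequence. Binding is reported as a within-array Z-score averaged across arrays of one protein sequence and across linkers.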

[2] = target: Gal(a1-4)Gal(b1-3)GlcNAc(b1-2)Man(a1-3)[Gal(a1-4)Gal(b1-3)GlcNAc(b1-2)Man(a1-6)]Man(b1-4)GlcNAc(b1-4)GlcNAc
How it was run: as §1

Gal(a1-4)Gal(b1-4)Glc = target: Gal(a1-4)Gal(b1-4)Glc
How it was run: as §1

Gal(a1-4)Gal(b1-4)GlcNAc = target: Gal(a1-4)Gal(b1-4)GlcNAc
How it was run: as §1

[3] = target: Gal(a1-4)Gal(b1-4)GlcNAc(b1-2)Man(a1-3)[Gal(a1-4)Gal(b1-4)GlcNAc(b1-2)Man(a1-6)]Man(b1-4)GlcNAc(b1-4)GlcNAc
How it was run: as §1

[4] = target: Gal(a1-4)Gal(b1-4)GlcNAc(b1-3)Gal(b1-4)Glc
How it was run: as §1

Gal(a1-4)GlcNAc = target: Gal(a1-4)GlcNAc
How it was run: as §1

Gal(a1-6)Glc = target: Gal(a1-6)Glc
How it was run: as §1

Gal(b1-2)Gal = target: Gal(b1-2)Gal
How it was run: as §1

Gal(b1-3)Gal = target: Gal(b1-3)Gal
How it was run: as §1

Gal(b1-3)Gal(b1-4)GlcNAc = target: Gal(b1-3)Gal(b1-4)GlcNAc
How it was run: as §1

Gal(b1-3)GalNAc = target: Gal(b1-3)GalNAc
How it was run: as §1

[5] = target: Gal(b1-3)GalNAc(a1-3)[Fuc(a1-2)]Gal(b1-4)Glc
How it was run: as §1

[6] = target: Gal(b1-3)GalNAc(a1-3)[Fuc(a1-2)]Gal(b1-4)GlcNAc
How it was run: as §1

Gal(b1-3)GalNAc(b1-3)Gal = target: Gal(b1-3)GalNAc(b1-3)Gal
How it was run: as §1

[7] = target: Gal(b1-3)GalNAc(b1-3)Gal(a1-4)Gal(b1-4)Glc
How it was run: as §1

[8] = target: Gal(b1-3)GalNAc(b1-4)Gal(b1-4)Glc
How it was run: as §1

[9] = target: Gal(b1-3)GalNAc(b1-4)[Neu5Ac(a2-3)]Gal(b1-4)Glc
How it was run: as §1

Gal(b1-3)GlcNAc = target: Gal(b1-3)GlcNAc
How it was run: as §1

[10] = target: Gal(b1-3)GlcNAc(a1-3)Gal(b1-4)GlcNAc
How it was run: as §1

[11] = target: Gal(b1-3)GlcNAc(a1-6)Gal(b1-4)GlcNAc
How it was run: as §1

Gal(b1-3)GlcNAc(b1-2)Man = target: Gal(b1-3)GlcNAc(b1-2)Man
How it was run: as §1

[12] = target: Gal(b1-3)GlcNAc(b1-2)Man(a1-3)[Gal(b1-3)GlcNAc(b1-2)Man(a1-6)]Man(b1-4)GlcNAc(b1-4)GlcNAc
How it was run: as §1

[13] = target: Gal(b1-3)GlcNAc(b1-2)Man(a1-3)[Gal(b1-3)GlcNAc(b1-2)Man(a1-6)]Man(b1-4)GlcNAc(b1-4)[Fuc(a1-6)]GlcNAc
How it was run: as §1

[14] = target: Gal(b1-3)GlcNAc(b1-2)Man(a1-3)[GlcNAc(b1-4)][Gal(b1-3)GlcNAc(b1-2)Man(a1-6)]Man(b1-4)GlcNAc(b1-4)GlcNAc
How it was run: as §1

[15] = target: Gal(b1-3)GlcNAc(b1-2)[Gal(b1-3)GlcNAc(b1-6)]Man(a1-6)[Gal(b1-3)GlcNAc(b1-2)Man(a1-3)]Man(b1-4)GlcNAc(b1-4)GlcNAc
How it was run: as §1

[16] = target: Gal(b1-3)GlcNAc(b1-3)Gal(b1-3)GlcNAc
How it was run: as §1

[17] = target: Gal(b1-3)GlcNAc(b1-3)Gal(b1-4)Glc
How it was run: as §1

[18] = target: Gal(b1-3)GlcNAc(b1-3)Gal(b1-4)GlcNAc
How it was run: as §1

[19] = target: Gal(b1-3)GlcNAc(b1-3)Gal(b1-4)GlcNAc(b1-2)Man(a1-3)[Gal(b1-3)GlcNAc(b1-3)Gal(b1-4)GlcNAc(b1-2)Man(a1-6)]Man(b1-4)GlcNAc(b1-4)GlcNAc
How it was run: as §1

[20] = target: Gal(b1-3)GlcNAc(b1-3)Gal(b1-4)GlcNAc(b1-2)[Gal(b1-3)GlcNAc(b1-3)Gal(b1-4)GlcNAc(b1-6)]Man(a1-6)[Gal(b1-3)GlcNAc(b1-3)Gal(b1-4)GlcNAc(b1-2)Man(a1-3)]Man(b1-4)GlcNAc(b1-4)[Fuc(a1-6)]GlcNAc
How it was run: as §1

[21] = target: Gal(b1-3)GlcNAc(b1-3)Gal(b1-4)GlcNAc(b1-3)Gal(b1-4)GlcNAc(b1-2)[Gal(b1-3)GlcNAc(b1-3)Gal(b1-4)GlcNAc(b1-3)Gal(b1-4)GlcNAc(b1-6)]Man(a1-6)[Gal(b1-3)GlcNAc(b1-3)Gal(b1-4)GlcNAc(b1-3)Gal(b1-4)GlcNAc(b1-2)Man(a1-3)]Man(b1-4)GlcNAc(b1-4)[Fuc(a1-6)]GlcNAc
How it was run: as §1

[22] = target: Gal(b1-3)GlcNAc(b1-3)Gal(b1-4)GlcNAc(b1-6)[Gal(b1-3)GlcNAc(b1-3)]Gal(b1-4)Glc
How it was run: as §1

[23] = target: Gal(b1-3)GlcNAc(b1-3)Gal(b1-4)[Fuc(a1-3)]GlcNAc
How it was run: as §1

[24] = target: Gal(b1-3)GlcNAc(b1-3)Gal(b1-4)[Fuc(a1-3)]GlcNAc(b1-6)[Gal(b1-3)GlcNAc(b1-3)]Gal(b1-4)Glc
How it was run: as §1

[25] = target: Gal(b1-3)GlcNAc(b1-3)GalNAc
How it was run: as §1

[26] = target: Gal(b1-3)GlcNAc(b1-6)Gal(b1-4)GlcNAc
How it was run: as §1

[27] = target: Gal(b1-3)GlcNAc(b1-6)GalNAc
How it was run: as §1

B1: SBD-G4S3-Fc (protein)
chain: MASIPSSASVQLDSYNYDGSTFSGKIYVKNIAYSKKVTVVYADGSDNWNNNGNIIAASFSGPISGSNYEYWTFSASVKGIKEFYIKYEVSGKTYYDNNNSANYQVSTGGGGSGGGGSGGGGSEFVPRDCGCKPCICTVPEVSSVFIFPPKPKDVLTITLTPKVTCVVVDISKDDPEVQFSWFVDDVEVHTAQTQPREEQFNSTFRSVSELPIMHQDWLNGKEFKCRVNSAAFPAPIEKTISKTKGRPKAPQVYTIPPPKEQMAKDKVSLTCMITDFFPEDITVEWQWNGQPAENYKNTQPIMDTDGSYFVYSKLNVQKSNWEAGNTFTCSVLHEGLHNHHTEKSLSHSPGAA
What does the source list for B1?
glycan array binding signal (z-score) [1]: 1.33; glycan array binding signal (z-score) [2]: 0.138; glycan array binding signal (z-score) (Gal(a1-4)Gal(b1-4)Glc): -0.152; glycan array binding signal (z-score) (Gal(a1-4)Gal(b1-4)GlcNAc): -0.025; glycan array binding signal (z-score) [3]: -0.275; glycan array binding signal (z-score) [4]: -0.16; glycan array binding signal (z-score) (Gal(a1-4)GlcNAc): -0.439; glycan array binding signal (z-score) (Gal(a1-6)Glc): -0.327; glycan array binding signal (z-score) (Gal(b1-2)Gal): 0.291; glycan array binding signal (z-score) (Gal(b1-3)Gal): -0.276; glycan array binding signal (z-score) (Gal(b1-3)Gal(b1-4)GlcNAc): -0.202; glycan array binding signal (z-score) (Gal(b1-3)GalNAc): -0.13; glycan array binding signal (z-score) [5]: -0.267; glycan array binding signal (z-score) [6]: 0.022; glycan array binding signal (z-score) (Gal(b1-3)GalNAc(b1-3)Gal): -0.363; glycan array binding signal (z-score) [7]: 0.103; glycan array binding signal (z-score) [8]: -0.152; glycan array binding signal (z-score) [9]: -0.236; glycan array binding signal (z-score) (Gal(b1-3)GlcNAc): -0.27; glycan array binding signal (z-score) [10]: -0.19; glycan array binding signal (z-score) [11]: -0.271; glycan array binding signal (z-score) (Gal(b1-3)GlcNAc(b1-2)Man): -0.388; glycan array binding signal (z-score) [12]: 0.047; glycan array binding signal (z-score) [13]: -0.008; glycan array binding signal (z-score) [14]: 0.071; glycan array binding signal (z-score) [15]: -0.089; glycan array binding signal (z-score) [16]: -0.181; glycan array binding signal (z-score) [17]: -0.347; glycan array binding signal (z-score) [18]: -0.299; glycan array binding signal (z-score) [19]: -0.326; glycan array binding signal (z-score) [20]: 0.616; glycan array binding signal (z-score) [21]: 0.263; glycan array binding signal (z-score) [22]: -0.501; glycan array binding signal (z-score) [23]: -0.101; glycan array binding signal (z-score) [24]: -0.196; glycan array binding signal (z-score) [25]: -0.41; glycan array binding signal (z-score) [26]: -0.401; glycan array binding signal (z-score) [27]: -0.443
